The supplement of paper PMC7125110
± gives the standard error. Variants at the floor of the assay are shown more often than the library holds them.

B1: glmS ribozyme (parent)
chain: AUAAAAGCGCCAGAACUACAGAAAUGUAGUUGACGAGGAGGAGGUUUAUCGAAUUUUCGGCGGAUGCCUCCAAA

Key:
Conditions in all cases: with glucosamine-6-phosphate
glucosamine-6-phosphate [1] = variants of: B1; test: self-cleavage kobs at 40 uM GlcN6P; higher = faster cleavage; RNA array
In short: (§1)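 Ribozyme variants carrying barcodes were transcribed in situ on sequenced MiSeq chips by E. coli RNA polymerase and tracked at 37 °C with a hybridised Cy3 probe. They were exposed to 40 μM to 10 mM glucosamine-6-phosphate in HEPES/KCl/Mg(OAc)2 buffer. kobs came from exponential decay fits of normalised per-tile medians, and kcat and KM from weighted Michaelis–Menten fits.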

glucosamine-6-phosphate [2] = variants of: B1; test: self-cleavage kobs at 640 uM GlcN6P; higher = faster cleavage; RNA array
In short: as §1

glucosamine-6-phosphate [3] = variants of: B1; test: self-cleavage kobs at 160 uM GlcN6P; higher = faster cleavage; RNA array
In short: as §1

glucosamine-6-phosphate [4] = variants of: B1; test: self-cleavage kobs at 2500 uM GlcN6P; higher = faster cleavage; RNA array
In short: as §1

glucosamine-6-phosphate [5] = variants of: B1; test: self-cleavage kobs at 10000 uM GlcN6P; higher = faster cleavage; RNA array
In short: as §1

Variant | self-cleavage kobs at 40 uM GlcN6P (glucosamine-6-phosphate [1]) [s⁻¹] | self-cleavage kobs at 640 uM GlcN6P (glucosamine-6-phosphate [2]) [s⁻¹] | self-cleavage kobs at 160 uM GlcN6P (glucosamine-6-phosphate [3]) [s⁻¹] | self-cleavage kobs at 2500 uM GlcN6P (glucosamine-6-phosphate [4]) [s⁻¹] | self-cleavage kobs at 10000 uM GlcN6P (glucosamine-6-phosphate [5]) [s⁻¹]
G43C G62A | < 1e-05 | < 1e-05 | < 1e-05 | < 1e-05 | < 1e-05
G43C G66C | < 1e-05 | – | < 1e-05 | < 1e-05 | < 1e-05
G43C G66U | < 1e-05 | < 1e-05 | < 1e-05 | < 1e-05 | –
G43U A53C | < 1e-05 | – | < 1e-05 | – | –
G43U C71U | < 1e-05 | – | < 1e-05 | – | –
G43U G59C C67G | < 1e-05 | – | – | < 1e-05 | –
G43U G62C | < 1e-05 | < 1e-05 | < 1e-05 | < 1e-05 | < 1e-05
G43U U45A | < 1e-05 | – | < 1e-05 | – | –
G43U U65C | < 1e-05 | < 1e-05 | < 1e-05 | < 1e-05 | < 1e-05
G44A A48U | < 1e-05 | < 1e-05 | < 1e-05 | – | –
G44A A64G | < 1e-05 | – | – | – | –
G44A C68U | < 1e-05 | – | – | – | –
G44A C70A | < 1e-05 | – | < 1e-05 | < 1e-05 | < 1e-05
G44A G60A | < 1e-05 | < 1e-05 | < 1e-05 | < 1e-05 | < 1e-05
G44A U46A G62C | < 1e-05 | – | – | < 1e-05 | < 1e-05
G44A U46A U57C C68U | < 1e-05 | – | – | < 1e-05 | < 1e-05
G44A U69G | < 1e-05 | – | – | – | –
G44C C61A | < 1e-05 | < 1e-05 | – | < 1e-05 | < 1e-05
G44C G60A | < 1e-05 | < 1e-05 | < 1e-05 | < 1e-05 | < 1e-05
G44C U47C | < 1e-05 | – | – | – | –
G44C U56C | < 1e-05 | – | – | – | –

Variant | self-cleavage kobs at 40 uM GlcN6P (glucosamine-6-phosphate [1]) [s⁻¹] | self-cleavage kobs at 640 uM GlcN6P (glucosamine-6-phosphate [2]) [s⁻¹] | self-cleavage kobs at 160 uM GlcN6P (glucosamine-6-phosphate [3]) [s⁻¹] | self-cleavage kobs at 2500 uM GlcN6P (glucosamine-6-phosphate [4]) [s⁻¹] | self-cleavage kobs at 10000 uM GlcN6P (glucosamine-6-phosphate [5]) [s⁻¹]
G44U A53C C68U | < 1e-05 | – | – | – | –
G44U C50G G60C | < 1e-05 | – | – | – | –
G44U C68G | < 1e-05 | < 1e-05 | < 1e-05 | – | < 1e-05
G44U C70G | < 1e-05 | < 1e-05 | < 1e-05 | < 1e-05 | < 1e-05
G44U G59A | < 1e-05 | < 1e-05 | < 1e-05 | < 1e-05 | < 1e-05
G44U G59C | < 1e-05 | < 1e-05 | < 1e-05 | < 1e-05 | < 1e-05
G44U G62C | < 1e-05 | < 1e-05 | < 1e-05 | < 1e-05 | < 1e-05
G44U U56A C68G | < 1e-05 | – | – | – | –
U45A G60C C71G | < 1e-05 | < 1e-05 | – | < 1e-05 | –
U45A G66U | 4.15e-05 ± 1.3e-05 | 0.000508 ± 0.0001 | 0.000117 ± 3.4e-05 | 0.00104 ± 0.00022 | 0.0016 ± 0.00026
U45C A52U | < 1e-05 | – | – | – | –
U45C A53U | 4.26e-05 ± 1.2e-05 | 0.00031 ± 5e-05 | 0.000117 ± 2.5e-05 | 0.00109 ± 0.00022 | 0.00199 ± 0.00035
U45C G59A | < 1e-05 | < 1e-05 | < 1e-05 | – | –
U45C G59C | < 1e-05 | < 1e-05 | < 1e-05 | < 1e-05 | < 1e-05
U45C G60U | < 1e-05 | < 1e-05 | < 1e-05 | – | < 1e-05
U45C U65C | < 1e-05 | – | – | – | –
U45G A48C | < 1e-05 | – | < 1e-05 | – | –
U45G C50G | < 1e-05 | < 1e-05 | < 1e-05 | < 1e-05 | < 1e-05
U45G G60U | < 1e-05 | < 1e-05 | – | < 1e-05 | < 1e-05
U46A G62U | < 1e-05 | < 1e-05 | < 1e-05 | < 1e-05 | < 1e-05
